Source: paper PMC7847670
Results are given in words; binding and its absence hold for the method and conditions named. Binding seen in cells or lysates may run through a third protein. Some binding calls cover weakened binding; strength is not graded here.

Amino acid sequences for entries named in this document (tags omitted). A change or cut given only in a name is not applied to a line headed by its entry.
UniProt Q96SB3: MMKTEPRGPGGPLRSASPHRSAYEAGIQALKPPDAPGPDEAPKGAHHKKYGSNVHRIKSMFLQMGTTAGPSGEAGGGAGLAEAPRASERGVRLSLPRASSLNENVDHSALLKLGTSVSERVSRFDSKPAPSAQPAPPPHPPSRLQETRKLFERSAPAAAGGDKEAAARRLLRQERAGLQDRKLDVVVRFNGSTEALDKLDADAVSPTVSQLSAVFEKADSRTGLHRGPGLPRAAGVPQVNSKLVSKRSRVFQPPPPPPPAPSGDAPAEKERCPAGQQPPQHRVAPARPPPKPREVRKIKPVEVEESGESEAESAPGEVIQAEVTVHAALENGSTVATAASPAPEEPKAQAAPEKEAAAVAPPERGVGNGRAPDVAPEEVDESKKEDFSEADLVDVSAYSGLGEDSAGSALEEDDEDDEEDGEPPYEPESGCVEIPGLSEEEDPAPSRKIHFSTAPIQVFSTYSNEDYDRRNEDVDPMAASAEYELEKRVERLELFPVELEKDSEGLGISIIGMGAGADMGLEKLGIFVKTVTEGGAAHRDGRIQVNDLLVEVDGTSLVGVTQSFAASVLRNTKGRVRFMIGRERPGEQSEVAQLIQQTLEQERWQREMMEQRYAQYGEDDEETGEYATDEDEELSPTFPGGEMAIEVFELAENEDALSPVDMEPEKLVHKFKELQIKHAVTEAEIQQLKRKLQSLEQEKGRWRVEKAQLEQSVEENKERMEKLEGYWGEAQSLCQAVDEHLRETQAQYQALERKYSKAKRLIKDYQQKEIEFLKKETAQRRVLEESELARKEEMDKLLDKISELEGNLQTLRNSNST

Columns and labels:
[1] = biological target: SPINOPHILIN (wild-type, endogenous) (human (endogenous in T47D and MDA-MB-468)) (UniProt Q96SB3); test: co-IP; Figure S5 (total pRB); cells, precipitating antibody and conditions not told in the text shown
[2] = biological target: SPN-A566V (human) (UniProt Q96SB3); test: as above
[3] = biological target: SPINOPHILIN (wild-type, endogenous) (human (endogenous in T47D and MDA-MB-468)) (UniProt Q96SB3); test: co-IP; anti-SPN (or anti-IgG control) on protein A Sepharose, 1 mg of T47D or MDA-MB-468 cell extract overnight, washed with PBS-BSA and IGEPAL 0.2%; blots for PP1α, PP1β, PP1γ, P-pRB, P-p107, P-p130
[4] = biological target: SPN-A566V (human) (UniProt Q96SB3); test: as above
[5] = biological target: SPINOPHILIN (wild-type, endogenous) (human (endogenous in T47D and MDA-MB-468)), Q96SB3; test: as above; settings: remark: other sources report otherwise

Binder | binding [1] | binding [2] | binding [3] | binding [4] | binding [5]
P-pRB (Ser807/811) (protein, UniProt P06400 1-928, phosphoserine at 807/811) MPPKTPRKTAATAAAAAAEPPAPPPPPPPEEDPEQDSGPEDLPLVRLEFEETEEPDFTALCQKLKIPDHVRERAWLTWEKVSSVDGVLGGYIQKKKELWGICIFIAAVDLDEMSFTFTELQKNIEISVHKFFNLLKEIDTSTKVDNAMSRLLKKYDVLFALFSKLERTCELIYLTQPSSSISTEINSALVLKVSWITFLLAKGEVLQMEDDLVISFQLMLCVLDYFIKLSPPMLLKEPYKTAVIPINGSPRTPRRGQNRSARIAKQLENDTRIIEVLCKEHECNIDEVKNVYFKNFIPFMNSLGLVTSNGLPEVENLSKRYEEIYLKNKDLDARLFLDHDKTLQTDSIDSFETQRTPRKSNLDEEVNVIPPHTPVRTVMNTIQQLMMILNSASDQPSENLISYFNNCTVNPKESILKRVKDIGYIFKEKFAKAVGQGCVEIGSQRYKLGVRLYYRVMESMLKSEEERLSIQNFSKLLNDNIFHMSLLACALEVVMATYSRSTSQNLDSGTDLSFPWILNVLNLKAFDFYKVIESFIKAEGNLTREMIKHLERCEHRIMESLAWLSDSPLFDLIKQSKDREGPTDHLESACPLNLPLQNNHTAADMYLSPVRSPKKKGSTTRVNSTANAETQATSAFQTQKPLKSTSLSLFYKKVYRLAYLRLNTLCERLLSEHPELEHIIWTLFQHTLQNEYELMRDRHLDQIMMCSMYGICKVKNIDLKFKIIVTAYKDLPHAVQETFKRVLIKEEEYDSIIVFYNSVFMQRLKTNILQYASTRPPTLSPIPHIPRSPYKFPSSPLRIPGGNIYISPLKSPYKISEGLPTPTKMTPRSRILVSIGESFGTSEKFQKINQMVCNSDRVLKRSAEGSNPPKPLKKLRFDIEGSDEADGSKHLPGESKFQQKLAEMTSTRTRMQKQKMNDSMDTSNKEEK | – | – | binds | binds | –
P-p107 (Ser975) (protein, UniProt P28749 1-1068, phosphoserine at 975) MFEDKPHAEGAAVVAAAGEALQALCQELNLDEGSAAEALDDFTAIRGNYSLEGEVTHWLACSLYVACRKSIIPTVGKGIMEGNCVSLTRILRSAKLSLIQFFSKMKKWMDMSNLPQEFRERIERLERNFEVSTVIFKKYEPIFLDIFQNPYEEPPKLPRSRKQRRIPCSVKDLFNFCWTLFVYTKGNFRMIGDDLVNSYHLLLCCLDLIFANAIMCPNRQDLLNPSFKGLPSDFHTADFTASEEPPCIIAVLCELHDGLLVEAKGIKEHYFKPYISKLFDRKILKGECLLDLSSFTDNSKAVNKEYEEYVLTVGDFDERIFLGADAEEEIGTPRKFTRDTPLGKLTAQANVEYNLQQHFEKKRSFAPSTPLTGRRYLREKEAVITPVASATQSVSRLQSIVAGLKNAPSDQLINIFESCVRNPVENIMKILKGIGETFCQHYTQSTDEQPGSHIDFAVNRLKLAEILYYKILETVMVQETRRLHGMDMSVLLEQDIFHRSLMACCLEIVLFAYSSPRTFPWIIEVLNLQPFYFYKVIEVVIRSEEGLSRDMVKHLNSIEEQILESLAWSHDSALWEALQVSANKVPTCEEVIFPNNFETGNGGNVQGHLPLMPMSPLMHPRVKEVRTDSGSLRRDMQPLSPISVHERYSSPTAGSAKRRLFGEDPPKEMLMDKIITEGTKLKIAPSSSITAENVSILPGQTLLTMATAPVTGTTGHKVTIPLHGVANDAGEITLIPLSMNTNQESKVKSPVSLTAHSLIGASPKQTNLTKAQEVHSTGINRPKRTGSLALFYRKVYHLASVRLRDLCLKLDVSNELRRKIWTCFEFTLVHCPDLMKDRHLDQLLLCAFYIMAKVTKEERTFQEIMKSYRNQPQANSHVYRSVLLKSIPREVVAYNKNINDDFEMIDCDLEDATKTPDCSSGPVKEERGDLIKFYNTIYVGRVKSFALKYDLANQDHMMDAPPLSPFPHIKQQPGSPRRISQQHSIYISPHKNGSGLTPRSALLYKFNGSPSKSLKDINNMIRQGEQRTKKRVIAIDSDAESPAKRVCQENDDVLLKRLQDVVSERANH | – | – | binds | binds weakly | –

Continued, values first:

binding [1] | binding [2] | binding [3] | binding [4] | binding [5] | Binder
binds | binds | – | – | – | total pRB (protein, UniProt P06400 1-928) MPPKTPRKTAATAAAAAAEPPAPPPPPPPEEDPEQDSGPEDLPLVRLEFEETEEPDFTALCQKLKIPDHVRERAWLTWEKVSSVDGVLGGYIQKKKELWGICIFIAAVDLDEMSFTFTELQKNIEISVHKFFNLLKEIDTSTKVDNAMSRLLKKYDVLFALFSKLERTCELIYLTQPSSSISTEINSALVLKVSWITFLLAKGEVLQMEDDLVISFQLMLCVLDYFIKLSPPMLLKEPYKTAVIPINGSPRTPRRGQNRSARIAKQLENDTRIIEVLCKEHECNIDEVKNVYFKNFIPFMNSLGLVTSNGLPEVENLSKRYEEIYLKNKDLDARLFLDHDKTLQTDSIDSFETQRTPRKSNLDEEVNVIPPHTPVRTVMNTIQQLMMILNSASDQPSENLISYFNNCTVNPKESILKRVKDIGYIFKEKFAKAVGQGCVEIGSQRYKLGVRLYYRVMESMLKSEEERLSIQNFSKLLNDNIFHMSLLACALEVVMATYSRSTSQNLDSGTDLSFPWILNVLNLKAFDFYKVIESFIKAEGNLTREMIKHLERCEHRIMESLAWLSDSPLFDLIKQSKDREGPTDHLESACPLNLPLQNNHTAADMYLSPVRSPKKKGSTTRVNSTANAETQATSAFQTQKPLKSTSLSLFYKKVYRLAYLRLNTLCERLLSEHPELEHIIWTLFQHTLQNEYELMRDRHLDQIMMCSMYGICKVKNIDLKFKIIVTAYKDLPHAVQETFKRVLIKEEEYDSIIVFYNSVFMQRLKTNILQYASTRPPTLSPIPHIPRSPYKFPSSPLRIPGGNIYISPLKSPYKISEGLPTPTKMTPRSRILVSIGESFGTSEKFQKINQMVCNSDRVLKRSAEGSNPPKPLKKLRFDIEGSDEADGSKHLPGESKFQQKLAEMTSTRTRMQKQKMNDSMDTSNKEEK
– | – | – | – | no binding | PP1β, P62140 1-327 (enzyme) MADGELNVDSLITRLLEVRGCRPGKIVQMTEAEVRGLCIKSREIFLSQPILLELEAPLKICGDIHGQYTDLLRLFEYGGFPPEANYLFLGDYVDRGKQSLETICLLLAYKIKYPENFFLLRGNHECASINRIYGFYDECKRRFNIKLWKTFTDCFNCLPIAAIVDEKIFCCHGGLSPDLQSMEQIRRIMRPTDVPDTGLLCDLLWSDPDKDVQGWGENDRGVSFTFGADVVSKFLNRHDLDLICRAHQVVEDGYEFFAKRQLVTLFSAPNYCGEFDNAGGMMSVDETLMCSFQILKPSEKKAKYQYGGLNSGRPVTPPRTANPPKKR
